Laboratory results reported in PMC9911399, “Two distinct binding modes provide the RNA-binding protein RbFox with extraordinary sequence specificity”.
Positions count from the first letter of the chain named. This is one part of the list.

T1: RBFOX1 RRM (Homo sapiens, UniProt Q9NWB1 109-208)
T1 sequence: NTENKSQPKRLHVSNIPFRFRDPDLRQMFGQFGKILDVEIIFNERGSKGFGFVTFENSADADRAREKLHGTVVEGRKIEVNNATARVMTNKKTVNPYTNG

B1: UCCACUG (DNA:RNA)
RNA: GGGAGACCGGAAUUCAGAUUGUCCUCCACUGUUAAAUCCCGUCGUAGCCACCA
DNA 1: CAATCTGAATTCCGGTCTCCC
DNA 2: TGGTGGCTACGACGGGATT
B2: CCUGCUA (DNA:RNA)
RNA: B1 RNA with U25C, C27U, A28G, G31A
DNA 1: CAATCTGAATTCCGGTCTCCC
DNA 2: TGGTGGCTACGACGGGATT
B3: AGCUAGC (DNA:RNA)
RNA: B1 RNA with U25A, C26G, A28U, C29A, U30G, G31C
DNA 1: CAATCTGAATTCCGGTCTCCC
DNA 2: TGGTGGCTACGACGGGATT
B4: ACUCAUC (DNA:RNA)
RNA: B1 RNA with U25A, C27U, A28C, C29A, G31C
DNA 1: CAATCTGAATTCCGGTCTCCC
DNA 2: TGGTGGCTACGACGGGATT
B5: GCCUCAC (DNA:RNA)
RNA: B1 RNA with U25G, A28U, U30A, G31C
DNA 1: CAATCTGAATTCCGGTCTCCC
DNA 2: TGGTGGCTACGACGGGATT
B6: GCUUCAG (DNA:RNA)
RNA: B1 RNA with U25G, C27U, A28U, U30A
DNA 1: CAATCTGAATTCCGGTCTCCC
DNA 2: TGGTGGCTACGACGGGATT
B7: CUUGUCG (DNA:RNA)
RNA: B1 RNA with U25C, C26U, C27U, A28G, C29U, U30C
DNA 1: CAATCTGAATTCCGGTCTCCC
DNA 2: TGGTGGCTACGACGGGATT
B8: CUACUCA (DNA:RNA)
RNA: GGGAGACCGGAAUUCAGAUUGUCCCUACUCAUUAAAUCCCGUCGUAGCCACCA
DNA 1: CAATCTGAATTCCGGTCTCCC
DNA 2: TGGTGGCTACGACGGGATT
B9: UGAAACG (DNA:RNA)
RNA: B1 RNA with C26G, C27A, C29A, U30C
DNA 1: CAATCTGAATTCCGGTCTCCC
DNA 2: TGGTGGCTACGACGGGATT
B10: CAGACAA (DNA:RNA)
RNA: B8 RNA with U26A, A27G, C28A, U29C, C30A
DNA 1: CAATCTGAATTCCGGTCTCCC
DNA 2: TGGTGGCTACGACGGGATT
B11: AACUUGC (DNA:RNA)
RNA: B8 RNA with C25A, U26A, A27C, C28U, C30G, A31C
DNA 1: CAATCTGAATTCCGGTCTCCC
DNA 2: TGGTGGCTACGACGGGATT
B12: GUACGAA (DNA:RNA)
RNA: B8 RNA with C25G, U29G, C30A
DNA 1: CAATCTGAATTCCGGTCTCCC
DNA 2: TGGTGGCTACGACGGGATT
B13: CUCGACC (DNA:RNA)
RNA: B8 RNA with A27C, C28G, U29A, A31C
DNA 1: CAATCTGAATTCCGGTCTCCC
DNA 2: TGGTGGCTACGACGGGATT
B14: UGGAAUU (DNA:RNA)
RNA: B1 RNA with C26G, C27G, C29A, G31U
DNA 1: CAATCTGAATTCCGGTCTCCC
DNA 2: TGGTGGCTACGACGGGATT
B15: CGAGGCU (DNA:RNA)
RNA: B8 RNA with U26G, C28G, U29G, A31U
DNA 1: CAATCTGAATTCCGGTCTCCC
DNA 2: TGGTGGCTACGACGGGATT
B16: UGCUGUU (DNA:RNA)
RNA: B1 RNA with C26G, A28U, C29G, G31U
DNA 1: CAATCTGAATTCCGGTCTCCC
DNA 2: TGGTGGCTACGACGGGATT
B17: GAUGAUA (DNA:RNA)
RNA: B8 RNA with C25G, U26A, A27U, C28G, U29A, C30U
DNA 1: CAATCTGAATTCCGGTCTCCC
DNA 2: TGGTGGCTACGACGGGATT
B18: GGACUGU (DNA:RNA)
RNA: B8 RNA with C25G, U26G, C30G, A31U
DNA 1: CAATCTGAATTCCGGTCTCCC
DNA 2: TGGTGGCTACGACGGGATT
B19: ACGUGAU (DNA:RNA)
RNA: B1 RNA with U25A, C27G, A28U, C29G, U30A, G31U
DNA 1: CAATCTGAATTCCGGTCTCCC
DNA 2: TGGTGGCTACGACGGGATT
B20: CUAGGAU (DNA:RNA)
RNA: B8 RNA with C28G, U29G, C30A, A31U
DNA 1: CAATCTGAATTCCGGTCTCCC
DNA 2: TGGTGGCTACGACGGGATT
B21: GACGAAC (DNA:RNA)
RNA: B1 RNA with U25G, C26A, A28G, C29A, U30A, G31C
DNA 1: CAATCTGAATTCCGGTCTCCC
DNA 2: TGGTGGCTACGACGGGATT
B22: GCGGCUU (DNA:RNA)
RNA: B1 RNA with U25G, C27G, A28G, G31U
DNA 1: CAATCTGAATTCCGGTCTCCC
DNA 2: TGGTGGCTACGACGGGATT
B23: AUCUUAU (DNA:RNA)
RNA: B8 RNA with C25A, A27C, C28U, C30A, A31U
DNA 1: CAATCTGAATTCCGGTCTCCC
DNA 2: TGGTGGCTACGACGGGATT
B24: GGCUUAU (DNA:RNA)
RNA: B8 RNA with C25G, U26G, A27C, C28U, C30A, A31U
DNA 1: CAATCTGAATTCCGGTCTCCC
DNA 2: TGGTGGCTACGACGGGATT
B25: UAUAGUG (DNA:RNA)
RNA: B1 RNA with C26A, C27U, C29G
DNA 1: CAATCTGAATTCCGGTCTCCC
DNA 2: TGGTGGCTACGACGGGATT
B26: UCCUGGC (DNA:RNA)
RNA: B1 RNA with A28U, C29G, U30G, G31C
DNA 1: CAATCTGAATTCCGGTCTCCC
DNA 2: TGGTGGCTACGACGGGATT
B27: UUCACCU (DNA:RNA)
RNA: B1 RNA with C26U, U30C, G31U
DNA 1: CAATCTGAATTCCGGTCTCCC
DNA 2: TGGTGGCTACGACGGGATT
B28: CGGGCGU (DNA:RNA)
RNA: B8 RNA with U26G, A27G, C28G, U29C, C30G, A31U
DNA 1: CAATCTGAATTCCGGTCTCCC
DNA 2: TGGTGGCTACGACGGGATT
B29: ACGUUCC (DNA:RNA)
RNA: B8 RNA with C25A, U26C, A27G, C28U, A31C
DNA 1: CAATCTGAATTCCGGTCTCCC
DNA 2: TGGTGGCTACGACGGGATT
B30: AGCGUAC (DNA:RNA)
RNA: B8 RNA with C25A, U26G, A27C, C28G, C30A, A31C
DNA 1: CAATCTGAATTCCGGTCTCCC
DNA 2: TGGTGGCTACGACGGGATT
B31: UAUGCAA (DNA:RNA)
RNA: B1 RNA with C26A, C27U, A28G, U30A, G31A
DNA 1: CAATCTGAATTCCGGTCTCCC
DNA 2: TGGTGGCTACGACGGGATT

The binders below were run against T1, RBFOX1 RRM (assay: EMSA; HiTS-Eq, 1 nM pool, 10 min; buffer printed only for the single-RNA assays: 10 mM Tris pH 7.5, 150 mM NaCl, 3.4 mM EDTA, 0.001% NP-40, 30 C). Conditions: tags: His6 N-terminal (pET28a); label: 5' 32P.
How it was run: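 Relative association constants, normalised to the cognate motif, were derived by comparing read counts of each RNA species with those of the control reaction. The RNA sequenced was the free fraction, separated by 8% native PAGE after a 10 min equilibration in 50 µL of 1 nM 5′-radiolabelled RNA (7 randomized nucleotides) with increasing concentrations of purified wild-type or mutant RbFox RRM.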

Binder | binding signal
B1 | 0.00657 KA relative to UGCAUGU
B2 | 0.00973 KA relative to UGCAUGU
B3 | 0.0134 KA relative to UGCAUGU
B4 | 0.000194 KA relative to UGCAUGU
B5 | 0.00961 KA relative to UGCAUGU
B6 | 0.0196 KA relative to UGCAUGU
B7 | 0.0183 KA relative to UGCAUGU
B8 | 0.00175 KA relative to UGCAUGU
B9 | 0.0162 KA relative to UGCAUGU
B10 | 0.00171 KA relative to UGCAUGU
B11 | 0.00991 KA relative to UGCAUGU
B12 | 0.0118 KA relative to UGCAUGU
B13 | 0.00337 KA relative to UGCAUGU
B14 | 0.0217 KA relative to UGCAUGU
B15 | 0.0118 KA relative to UGCAUGU
B16 | 0.0254 KA relative to UGCAUGU

Binder | binding signal
B17 | 0.0132 KA relative to UGCAUGU
B18 | 0.0223 KA relative to UGCAUGU
B19 | 0.00623 KA relative to UGCAUGU
B20 | 0.00324 KA relative to UGCAUGU
B21 | 0.00753 KA relative to UGCAUGU
B22 | 0.0242 KA relative to UGCAUGU
B23 | 0.00106 KA relative to UGCAUGU
B24 | 0.00892 KA relative to UGCAUGU
B25 | 0.0164 KA relative to UGCAUGU
B26 | 0.0109 KA relative to UGCAUGU
B27 | 0.00158 KA relative to UGCAUGU
B28 | 0.029 KA relative to UGCAUGU
B29 | 0.00949 KA relative to UGCAUGU
B30 | 0.00875 KA relative to UGCAUGU
B31 | 0.0137 KA relative to UGCAUGU
